Assay [1] has as its target T1, purified full length FLAG-GFP-tagged KDM2A V801A/L803A (human) (UniProt Q9Y2K7).
T1 sequence: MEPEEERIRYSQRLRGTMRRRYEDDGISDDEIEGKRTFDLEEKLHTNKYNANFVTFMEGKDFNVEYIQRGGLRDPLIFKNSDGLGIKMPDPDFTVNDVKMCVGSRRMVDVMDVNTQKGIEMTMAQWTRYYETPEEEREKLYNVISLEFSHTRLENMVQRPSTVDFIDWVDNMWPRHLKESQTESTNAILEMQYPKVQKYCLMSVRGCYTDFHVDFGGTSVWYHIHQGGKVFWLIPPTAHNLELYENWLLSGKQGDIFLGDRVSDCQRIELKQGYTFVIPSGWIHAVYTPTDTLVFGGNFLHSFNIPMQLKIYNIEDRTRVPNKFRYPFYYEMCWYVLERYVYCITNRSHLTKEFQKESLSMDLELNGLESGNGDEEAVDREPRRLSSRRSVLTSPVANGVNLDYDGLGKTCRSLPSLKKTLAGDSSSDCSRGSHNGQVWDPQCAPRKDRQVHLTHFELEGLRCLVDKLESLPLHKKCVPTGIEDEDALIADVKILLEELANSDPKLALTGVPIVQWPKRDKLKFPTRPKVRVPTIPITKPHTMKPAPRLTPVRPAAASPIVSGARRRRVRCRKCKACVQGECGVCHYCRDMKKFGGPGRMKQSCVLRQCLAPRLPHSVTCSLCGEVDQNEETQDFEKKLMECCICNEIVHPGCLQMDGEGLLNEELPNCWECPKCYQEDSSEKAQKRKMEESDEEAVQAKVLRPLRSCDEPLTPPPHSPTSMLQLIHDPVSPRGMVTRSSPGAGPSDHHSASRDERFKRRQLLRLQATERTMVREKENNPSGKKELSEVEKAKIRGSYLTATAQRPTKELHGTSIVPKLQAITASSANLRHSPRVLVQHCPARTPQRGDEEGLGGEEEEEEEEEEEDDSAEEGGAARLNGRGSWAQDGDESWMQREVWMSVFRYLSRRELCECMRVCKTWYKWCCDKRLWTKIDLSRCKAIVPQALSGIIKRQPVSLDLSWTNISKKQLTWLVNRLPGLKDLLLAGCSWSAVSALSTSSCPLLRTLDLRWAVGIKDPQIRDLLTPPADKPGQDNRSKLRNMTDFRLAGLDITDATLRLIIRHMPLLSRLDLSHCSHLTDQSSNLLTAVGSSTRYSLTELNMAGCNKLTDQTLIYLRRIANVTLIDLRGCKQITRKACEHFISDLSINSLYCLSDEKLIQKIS
Kind of assay: pull-down; as a6 but nucleosomes with CpG-methylated 601-DNA (M.SssI), which does not bind KDM2A; 2 μg purified full length FLAG-GFP-KDM2A (WT or V801A/L803A) and 2 μg HP1α; both purified.

By UniProt entry, the sequences of proteins in these tests, tags left out.
UniProt P45973: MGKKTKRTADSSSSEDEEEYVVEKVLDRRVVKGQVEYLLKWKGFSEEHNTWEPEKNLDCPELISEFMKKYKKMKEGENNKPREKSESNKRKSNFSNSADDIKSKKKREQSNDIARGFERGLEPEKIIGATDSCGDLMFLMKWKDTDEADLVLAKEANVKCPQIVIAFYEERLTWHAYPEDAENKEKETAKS

For assay [2], the target named is T2, purified full length FLAG-GFP-tagged KDM2A S603D (human) (UniProt Q9Y2K7).
T2 sequence: T1 sequence with S603D, A801V, A803L
Nature of the assay: pull-down; nucleosomes (2.5 μg octamer, unmethylated biotinylated 601-DNA) immobilised on streptavidin beads, incubated with 2 μg purified full length FLAG-GFP-KDM2A (WT or mutant) and 2 μg HP1α in 1 ml binding buffer (20 mM HEPES pH7.9, 150 mM NaCl, 0.1% NP40); immunoblot; both purified.

Where a chain is given by its changes, count along the chain named. Results are given in words; binding and its absence hold for the method and conditions named. Some entries that bind do so weakly or less than the wild type. Where a sequence is shown, tags or fusion partners need not be part of it.

One substance from PMC5388433 can be followed below.

As for “recombinant purified HP1α (WT) (from UniProt P45973 1-191)”, the binding result is given as “no binding” in assay [1] and “binds” in assay [2].
